Several values for one entry are separate records, joined by “and”; a condition that tells them apart may be missing. Identical values can stand only once. Among all 410,000 compounds or so, about 6,400 (1.6%) were called active. Inconclusive means that the source gave no clear call. Such entries were picked first, then a sample of the others. Calls follow the shape of the dose curve; as a rule, active = well fitted inhibition curve with a large enough effect; inconclusive = small, poorly fitted or top-dose-only effect; inactive = no such curve, though single readings can be large or run the other way. Potencies beside an inconclusive call are fits to weak or partial responses and may not hold up.
What follows are compounds tested against Glucagon-like peptide 1 receptor (Homo sapiens) (UniProt P43220) (assay: qHTS of GLP-1 Receptor Inverse Agonists (Inhibition Mode)). Settings: HEK293 GLP-1R CRE-luciferase, luminescence, 24 h, GLP-1R form is constitutively active; activity change, negative = inhibition: at 38.3 µM (top of the series) unless noted.
Method in brief: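 HEK293 cells stably co-expressing a cAMP-responsive luciferase reporter and constitutively active GLP-1R were seeded, incubated 12 h, then exposed to compounds for 24 h at 37 C. Luminescence was read 12 min after detection reagent; inverse agonists lower signal.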
% is scaled to controls: 0 for no effect and ±100 for the full control effect; potency is read from the fitted curve at half-maximal effect; tags tell the direction and shape of the fitted curve.
Also: nearly all actives have a fitted effect of over 55% in size.

Chain of UniProt P43220 (P43220 whole entry, looked up): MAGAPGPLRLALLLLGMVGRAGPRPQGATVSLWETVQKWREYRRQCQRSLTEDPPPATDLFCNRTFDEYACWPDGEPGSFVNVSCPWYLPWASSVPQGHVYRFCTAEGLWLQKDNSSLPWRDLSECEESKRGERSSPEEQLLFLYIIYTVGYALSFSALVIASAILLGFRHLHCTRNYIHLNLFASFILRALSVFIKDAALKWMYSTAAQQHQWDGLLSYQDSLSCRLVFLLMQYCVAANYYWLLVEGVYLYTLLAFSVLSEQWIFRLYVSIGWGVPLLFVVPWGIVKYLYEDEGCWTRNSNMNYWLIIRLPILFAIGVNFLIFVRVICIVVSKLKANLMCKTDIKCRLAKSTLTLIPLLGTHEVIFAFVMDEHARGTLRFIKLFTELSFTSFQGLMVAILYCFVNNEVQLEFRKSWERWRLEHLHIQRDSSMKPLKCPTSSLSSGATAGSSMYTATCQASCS

Activity change, negative = inhibition, inconclusive:
O=C(CCN1CCCCC1)NNC(=O)C12CC3CC(CC(C3)C1)C2 -30.8% [inhibitor] [at 7.66 µM]

Activity change, negative = inhibition, inactive:
CN(C(=O)CSc1nc2ccc(NC(=O)c3ccccc3)cc2s1)c1ccccc1 -25.8%
COc1ccc(Cn2c(NCC(C)C)nc3c2c(=O)n(C)c(=O)n3C)cc1 -11.8%
CCC(C(=O)NC(C)(C)C)n1c(-c2ccc(C)cc2)nc2ccccc21 (stereo unspecified) -17.6%
CC(C)(C)c1ccc(OCC(=O)NNC(=O)C2CCCO2)cc1 (stereo unspecified) -12.8%
CCOc1ccc(C(=O)NCCc2sc(-c3cccc(F)c3)nc2C)cc1OCC 4.57%
Cc1cccc(OC(C)c2ccnc3nc(/N=C/N(C)C)nn23)c1 (stereo unspecified) -7.14%
NC(=O)C1CCN(c2ncnc3c2cnn3-c2cccc(Cl)c2)CC1 6.26%
C=CCn1c(-c2ccc(S(=O)(=O)N3CCOCC3)cc2)csc1=Nc1ccccc1 -1.79%
CCc1nc2c(OCC(N)=O)cccn2c1N(C)C(=O)c1ccc(OC)cc1 21.3%
Cc1ccc(NC(=O)CCCc2ccccc2)nc1 8.83%
COC(=O)Cc1c(C)c2ccc3c(c2oc1=O)CN(Cc1ccc(C)cc1)CO3 1.1%
CCOc1ccc(NC(=O)CCS(=O)(=O)c2cccc3nsnc23)cc1 -0.803%
Cc1ccc(CNc2nc3ccc(C)cc3n3cnnc23)cc1 83.4%
CCOc1ccc(CCNC(=O)CSc2cc(=O)n(CC)c3ccccc23)cc1OCC 24.4%
CCN(CC)S(=O)(=O)c1ccc(Cl)c(C(=O)NCCN2CCOCC2)c1 12.5%
Cc1nnc(NC(=O)C2CC(=O)N(c3ccccc3)C2)s1 (stereo unspecified) 15%
COc1ccc(NC(=O)CN(C)C(=O)/C=C/c2ccc(OCc3ccccc3)cc2)cc1 -13.2%

Potency, active:
COc1ccc(C2/C=C\CN(C(=O)Nc3ccc(C(F)(F)F)cc3)CC(=O)N2Cc2ccc(F)cc2)cc1 (stereo unspecified) 11.2 µM

Potency, inconclusive:
Oc1ccc(/C=C/c2nc(-c3ccccc3O)n(-c3ccccc3)n2)cc1 28.2 µM [inhibitor, single point]
O=C(Cc1ccc(Cl)cc1)Nc1cccc(S(=O)(=O)Nc2ccccc2F)c1 10 µM [inhibitor, partial curve, poor fit]
CN(CC(=O)Nc1ccccc1Sc1ccccc1)Cc1nc2ccccc2c(=O)[nH]1 10 µM [inhibitor, partial curve]
Nc1nc(C(c2ccccc2)c2ccccc2)cs1 22.4 µM [inhibitor, partial curve, poor fit]
O=C(/C=C/NNC(=O)c1ccccc1)c1ccccc1 7.94 µM [inhibitor, partial curve, poor fit]
O=[N+]([O-])c1ccc(NC(=S)NCc2ccncc2)cc1 7.94 µM [inhibitor, partial curve, poor fit]
O=C(CSc1nc(O)cc(=O)n1C1CCCC1)Nc1cccc(Cl)c1Cl 5.62 µM [inhibitor, partial curve, poor fit]
CC(C)C(CCNCc1ccccn1)c1ccc(Cl)cc1 (stereo unspecified) 10 µM [inhibitor, partial curve, poor fit]
O=C(CSc1nnc(-c2c[nH]c3ccccc23)o1)c1ccc(-c2ccccc2)cc1 12.6 µM [inhibitor, partial curve, poor fit]
CC(C)c1ccc(NC(=S)Nc2cccc3ccccc23)cc1 7.08 µM [inhibitor, partial curve, poor fit]
COc1ccccc1N1CCN(C(=O)c2cc3sccc3n2C)CC1 14.1 µM [inhibitor, partial curve, poor fit]
CC(C)c1cc(C(F)(F)F)nc(NNc2nc(C(C)C)cc(C(F)(F)F)n2)n1 31.6 µM [inhibitor, single point]
CCc1ccc(N2CC(c3nc4ccccc4n3Cc3ccccc3C)CC2=O)cc1 (stereo unspecified) 10 µM [inhibitor, partial curve, poor fit]
Cc1cc(C)c(O)c(-c2n[nH]c3c2C(c2cccc(O)c2)N(Cc2ccco2)C3=O)c1 (stereo unspecified) 28.2 µM [inhibitor, single point]
COc1c(Br)cc(C(N)=O)cc1OCc1ccccc1 28.2 µM [inhibitor, single point]
CCOc1ccc(S(=O)(=O)Nc2cccc(C(=O)NCC(c3ccccc3)N(C)C)c2)cc1 (stereo unspecified) 10 µM [inhibitor, single point]
O=C(OCC(=O)c1c[nH]c2ccccc12)c1cccc(S(=O)(=O)N2CCCCCC2)c1 10 µM [inhibitor, partial curve, poor fit]
Cc1ccc(S(=O)(=O)N(C)C)cc1NC(=O)CSc1ncc(C(F)(F)F)cc1Cl 28.2 µM [inhibitor, single point]
CN(CC(=O)Nc1ccccc1Cl)C(=O)c1cc2c(s1)CCCCC2 10 µM [inhibitor, partial curve, poor fit]
Cc1cccc(NC(=O)CSCC(=O)Nc2cc(Cl)ccc2N2CCN(C)CC2)c1 3.98 µM [inhibitor, full curve, poor fit]
COc1ccc(CCC(=O)NC2CCC(C)CC2)cc1 (stereo unspecified) 4.47 µM [inhibitor, partial curve, poor fit]
CCc1ccccc1NS(=O)(=O)c1ccc2[nH]cc(C(=O)NC3CCCC3)c(=O)c2c1 6.31 µM [inhibitor, partial curve, poor fit] and 7.94 µM [inhibitor, partial curve, poor fit]
CCOc1ccc(S(=O)(=O)NCc2ccccn2)cc1NC(=O)c1ccccc1F 0.316 µM [inhibitor, full curve, poor fit]
Cc1ccc(NC(=O)Cn2nc(C(F)(F)F)c3c2CCC3)cc1C 10 µM [inhibitor, partial curve, poor fit]
CC(C)COc1ccc(C(=O)Nc2onc3c2CCCC3)cc1 10 µM [inhibitor, partial curve, poor fit]
C/C(=N\NC(=S)Nc1cccc(C)c1)c1ccco1 3.55 µM [inhibitor, full curve]
O=C(COc1ccccc1)NCCS(=O)(=O)N1CCN(c2ccccc2)CC1 28.2 µM [inhibitor, single point]
N#Cc1ccc(NC(=S)N2CCC3CC2c2cc(-c4ccc5c(c4)OCO5)ccc23)cc1 (stereo unspecified) 11.2 µM [inhibitor, single point]
COc1ccc(NC(=S)N(CCCN2CCCC2)Cc2cccs2)cc1 28.2 µM [inhibitor, single point]
COc1ccc(Cl)cc1S(=O)(=O)N1CCCc2ccccc21 28.2 µM [inhibitor, single point]
CSc1ccc(S(=O)(=O)Nc2ccc(F)cc2)cc1 17.8 µM [inhibitor, single point]
COc1cccc(Nc2nc(C(N)Cc3ccc(C(F)(F)F)cc3)cs2)n1 (stereo unspecified) 28.2 µM [inhibitor, single point]
O=C(Nc1cccc(C(F)(F)F)c1)C1CCN(S(=O)(=O)c2cccc3nsnc23)CC1 10 µM [inhibitor, partial curve]
CCCC(=O)N(CCN1CCOCC1)c1nc2c(C)cccc2s1 14.1 µM [inhibitor, single point]
C[C@H]1CN(CCc2ccccc2)C(=O)[C@@H]1CC(=O)Nc1ccc(Br)cc1 10 µM [inhibitor, partial curve, poor fit]
Cc1ccc(OCCNC(=O)CCc2ccccc2)cc1C 12.6 µM [inhibitor, single point]
COc1cccc(-c2cc(C(F)(F)F)nc(N3CCOCC3)n2)c1 7.94 µM [inhibitor, single point]
CCOC(=O)C1(O)CC(C)=NN1C(=O)c1cccc(Br)c1 (stereo unspecified) 1 µM [inhibitor, full curve, poor fit]
COc1ccc(OC)c(NS(=O)(=O)c2ccc(SC)cc2)c1 2.82 µM [inhibitor, full curve]
COc1cccc(/C=C/c2nc(C#N)c(N3CCCCCC3)o2)c1 28.2 µM [inhibitor, single point]
O=C(Nc1ccc2c(c1)CCC2)c1ccccc1F 15.8 µM [inhibitor, single point]
COc1ccc(OC)c(-c2csc(NC(=O)CSc3ccccc3)n2)c1 28.2 µM [inhibitor, single point]
COc1cccc(CNC(=O)CCCc2c[nH]c3ccccc23)c1 7.94 µM [inhibitor, partial curve, poor fit]
Nc1c(OS(=O)(=O)c2ccccc2)cccc1OS(=O)(=O)c1ccccc1 25.1 µM [inhibitor, single point]
CCc1ccccc1NS(=O)(=O)c1ccc(SC)cc1 12.6 µM [inhibitor, single point]
C=C1C(=O)OC2C=C(CO)CCC=C(CO)CC(OC(=O)C(C)C)C12 (stereo unspecified) 28.2 µM [inhibitor, single point]
CC1CCN(c2ccc(C(=O)NCc3ccc4c(c3)OCO4)cc2[N+](=O)[O-])CC1 28.2 µM [inhibitor, single point]
